Reference: PubChem BioAssay AID1347417 (National Center for Advancing Translational Sciences (NCATS), 2020)
In all, about 120,000 compounds went through this assay and about 5,300 (4.4%) were called active. Inconclusive results, whose numbers are uncertain, are shown with a selection of clear calls. Calls follow the shape of the dose curve; as a rule, active = well fitted inhibition curve with a large enough effect; inconclusive = small, poorly fitted or top-dose-only effect; inactive = no such curve, though single readings can be large or run the other way. Potencies beside an inconclusive call are fits to weak or partial responses and may not hold up.

Test: qHTS Primary assay for Inhibitors of Plasmodium falciparum Dd2 growth in vitro; also: nearly all actives have a fitted effect of over 65% in size
Conditions: P. falciparum Dd2 growth, SYBR Green, 72 h; series mostly up to 28.9 µM
Outline: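 Infected erythrocytes (Dd2, 0.3% parasitemia, 2.5% hematocrit final) are added to compound in RPMI-1640/Albumax II medium, grown 72 h at 37C in low oxygen, then lysed with saponin/Triton-X containing SYBR Green and read by fluorescence.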
Potency is read from the fitted curve at half-maximal effect; tags tell the direction and shape of the fitted curve.

SMILES | Potency
CC1(c2ccccc2)N(Cc2ccc(O)cc2)C(=O)OC12CCN(Cc1cccnc1)CC2 (stereo not drawn) | inconclusive: 2.24 µM [inhibitor, single point]
CCOC(=O)c1ccc(NC(=O)C2CCN(S(=O)(=O)c3ccc4c(c3)CCCC(=O)N4)CC2)cc1 | inconclusive: 7.94 µM [inhibitor, partial curve, poor fit]
CCOc1ccccc1CNC(=O)c1cc(-c2ccc(Cl)s2)nc2ccccc12 | inconclusive: 12.6 µM [inhibitor, partial curve]
Cc1ccccc1-c1onc(C)c1C(=O)NCc1cc(F)cc(F)c1 | inconclusive: 11.2 µM [inhibitor, single point]
Cc1ccccc1-c1nn2c(=O)cc(CN3CCN(C(=O)/C=C/c4ccccc4)CC3)nc2s1 | inconclusive: 4.47 µM [inhibitor, partial curve, poor fit]
CCc1ccc(NC(=O)Cn2c(=O)n(CCC(=O)N3CCc4ccccc4C3)c(=O)c3ccccc32)cc1 | inactive
CCCc1nnc(C[C@@H]2C[C@@H](C(C)C)[C@H](CNc3cccnc3)C=C2C)o1 | inconclusive: 10 µM [inhibitor, partial curve, poor fit]
O=C(Nc1cc(F)ccc1Cl)c1cnc(-c2ccccc2)nc1-c1ccncc1 | inconclusive: 5.01 µM [inhibitor, partial curve]
O=C(c1ccc2c(c1)OCCO2)N(Cc1cccnc1)c1nc2c(Cl)cccc2s1 | inconclusive: 10 µM [inhibitor, single point]
COc1cccc(Cn2c(CNS(=O)(=O)c3ccc(F)c(Cl)c3)nc3cccnc32)c1 | inconclusive: 17.8 µM [inhibitor, single point]
CSc1cccc(NC(=O)O[C@@H]2CC[C@]3(C)C(CC[C@@H](O)[C@H]3CC(=O)N3CCCC3)[C@]2(C)CO)c1 (stereo partly drawn) | active: 5.01 µM
CCN1c2cc(C(=O)Nc3ccccc3F)ccc2C(=O)N2CCCC21 (stereo not drawn) | inconclusive: 3.16 µM [inhibitor, full curve]
c1csc(CNC[C@H]2Cn3cc(-c4ccc5c(c4)OCCCO5)nc3CO2)n1 | inconclusive: 15.8 µM [inhibitor, single point]
CCOC(=O)c1[nH]c2c(c1Cc1ccccc1C)C(=O)CC(c1cc(OC)ccc1OC)C2 (stereo not drawn) | active: 5.01 µM
CNC(=O)[C@@H]1C[C@H](Oc2ccccc2)CN1S(=O)(=O)c1cc(OC)ccc1OC | inactive
COCCN1C(=O)c2cccn2CC1CNC(=O)Cc1cccc(OC)c1 (stereo not drawn) | inactive
CN(C)c1nc2c(c(=O)[nH]1)CCN(Cc1cc(Cl)ccc1F)CC2 | inconclusive: 0.0708 µM [inhibitor, single point]
Cc1ccc(-c2c(CN3CCN(c4cccc(C)c4)C(C)C3)csc2C)cc1 (stereo not drawn) | inconclusive: 10 µM [inhibitor, single point]
COC(=O)[C@@H]1Cc2ncn(Cc3ccc(OC)cc3)c2CN1S(=O)(=O)c1cccc(C(F)(F)F)c1 | inconclusive: 17.8 µM [inhibitor, single point]
O=C(c1ccccc1)N1Cc2ccccc2CC2(CCCN2Cc2cccnc2)C1 (stereo not drawn) | inconclusive: 10 µM [inhibitor, single point]
Cc1ccccc1S(=O)Cc1ccc(C(=O)N2CCN(c3cccc(C)c3C)CC2)o1 (stereo not drawn) | inconclusive: 17.8 µM [inhibitor, single point]

SMILES | Potency
CC(C)CCN1CCC(N2CCN(C(=O)c3cccc(Br)c3)CC2)C1=O (stereo not drawn) | inconclusive: 6.31 µM [inhibitor, single point]
NCC(=O)N1CCCC2(Cc3ccccc3CN2S(=O)(=O)c2ccccc2)C1 (stereo not drawn) | inconclusive: 8.91 µM [inhibitor, partial curve]
O=C1c2c(nc(CN3CCC(F)(F)CC3)n2Cc2ccccc2)NCCN1CCOc1ccccc1 | inconclusive: 10 µM [inhibitor, partial curve, poor fit]
Cc1cccc(N(CC(O)Cn2c3ccccc3c3ccccc32)S(=O)(=O)c2ccc(F)cc2)c1 (stereo not drawn) | inconclusive: 2.82 µM [inhibitor, single point]
O=C(Nc1cccc(-c2nnc3n2CCCC3)c1)c1ccco1 | inconclusive: 0.355 µM [inhibitor, partial curve, poor fit]
Cc1nn2c(c1-c1ccccc1Oc1ccccc1)N(Cc1cccc(O)c1)CCC2 | inconclusive: 1 µM [inhibitor, full curve, poor fit]
COc1ccc(CCNC(=O)c2ccc(Nc3nc4ccccc4n4nnnc34)cc2)cc1OC | active: 8.91 µM
O=C(CCc1ccccc1)NC1CCN(c2nnc3ccccn23)CC1 | inactive
CN(CCCNC(=O)c1cc2c(Cl)nc3ccccc3c2s1)Cc1ccccc1 | inconclusive: 12.6 µM [inhibitor, partial curve, poor fit]
O=C(NC1CCCc2c1[nH]c1c(Cl)cccc21)c1ccco1 (stereo not drawn) | inconclusive: 3.16 µM [inhibitor, full curve]
Cc1noc(C)c1C(=O)N1CCC2(CC1)CN([S+](C)(=O)[O-])Cc1ccccc1O2 | inconclusive: 11.2 µM [inhibitor, partial curve]
COCCCNC(=O)CN1C(=O)COc2ccc(C(=O)COc3cccc(OC)c3)cc21 | inactive
Cc1cc(C)n(CC(=O)N[C@@H]2CN(c3ncccn3)C[C@H]2CN(C)C)n1 | inactive
COc1ccc(Cc2nc3nccc(-c4ccc(OC)cc4F)n3n2)cc1 | inconclusive: 11.2 µM [inhibitor, partial curve]
COc1ccc(NC(=O)N(CCC(C)C)C(C)c2cccs2)c(OC)c1 (stereo not drawn) | inconclusive: 11.2 µM [inhibitor, partial curve]
COc1ccc(CCC(=O)NCC(=O)N2CCCCCCNC(=O)CC2c2ccccc2)cc1 (stereo not drawn) | inconclusive: 11.2 µM [inhibitor, single point]
CN(C)c1cccc(NC(=O)c2ccnc(-c3nnc4ccc(N5CCOCC5)nn34)c2)c1 | inconclusive: 11.2 µM [inhibitor, partial curve, poor fit]
COc1ccc(-c2cc(N3CCN(C(=O)Cc4cccc(OC)c4)CC3)n[nH]2)cc1 | inconclusive: 1.41 µM [inhibitor, full curve]
Cc1ccc(C2CCN(C(=O)c3cnn(-c4cccc(Cl)c4)c3C3CCN(C(=O)OC(C)(C)C)CC3)C2)cc1 (stereo not drawn) | active: 4.47 µM
Cc1cc(C)cc(NC(=O)C(=O)NCC(c2ccc3c(c2)OCO3)N2CCN(C)CC2)c1 (stereo not drawn) | inconclusive: 17.8 µM [inhibitor, single point]
COc1ccc(-c2cc3c(ccn3C)c(C(=O)NCc3cccnc3)n2)cc1OC | inconclusive: 31.6 µM [inhibitor, single point]

SMILES | Potency
OC(c1cccc(C(F)(F)F)c1)c1nc(Nc2ccc(F)cc2F)n[nH]1 (stereo not drawn) | inactive
COc1cc(F)ccc1CN1CCC2(Cc3ccccc3CNC2=O)C1 (stereo not drawn) | inactive
CN(Cc1cccnc1)C1CCCc2ccccc21 (stereo not drawn) | active: 5.01 µM
CCN(CC)S(=O)(=O)c1ccc(NC(=O)NCc2noc3ccc(C)cc23)cc1 | inconclusive: 14.1 µM [inhibitor, single point]
CCCC1CN(C(=O)OC(C)(C)C)CCN1 (stereo not drawn) | inconclusive: 3.55 µM [inhibitor, partial curve, poor fit]
Cc1ccc(CNC(=O)c2oc3c(c2C)-c2nn(Cc4ccc(Cl)cc4)cc2CC3)cc1 | inconclusive: 17.8 µM [inhibitor, single point]
Cc1cc(S(=O)(=O)C(CNC(=O)c2ccc(OC(C)C)cc2)c2cccs2)ccc1F (stereo not drawn) | active: 5.01 µM
COc1ccccc1CNC[C@H]1O[C@H](Cc2cc(CN3CCOCC3)on2)CC[C@@H]1O | inactive
CCOc1ccc(NC(=O)Cn2c3ncccc3c(=O)n2-c2ccc(CC)cc2)cc1 | inconclusive: 17.8 µM [inhibitor, single point]
Cn1ccnc1C(=O)N1CCCCCCNC(=O)[C@@H]2C[C@@H](c3nc(-c4cccnc4)no3)C[C@@H]21 | inconclusive: 17.8 µM [inhibitor, single point]
COc1ccc(NC(=O)CSc2nc3c([nH]c4ccccc43)c(=O)n2-c2ccccc2)c(OC)c1 | active: 5.01 µM
CC(C)(C)OC(=O)NC(C)(CN)c1ccccn1 (stereo not drawn) | inconclusive: 5.01 µM [inhibitor, partial curve]
NCc1nc2cccnc2n1Cc1ccccc1Cl | inconclusive: 17.8 µM [inhibitor, single point]
CN(C)C(=O)c1n[nH]c2c1CN(C(=O)c1cccc(Cl)c1)CC2 | inconclusive: 17.8 µM [inhibitor, single point]
CCc1ccccc1NC(=O)N1CCCC(Cn2cnc3cccnc32)C1 (stereo not drawn) | inconclusive: 6.31 µM [inhibitor, single point]
O=C1NC(=NC2CCCCC2)C2(CCCN(Cc3ccsc3)C2)N1c1cccnc1 (stereo not drawn) | inconclusive: 10 µM [inhibitor, single point]
Cc1cc2cc(-c3c(C)noc3C)nc(NC3CCN(C)CC3)c2o1 | active: 10 µM
COc1ccc(C(=O)c2cn(Cc3ccccc3F)c3cc4c(cc3c2=O)OCO4)cc1 | inconclusive: 10 µM [inhibitor, single point]
O=c1cc(-c2ccccc2)n2c(SCc3ccc(Cl)cc3)nnc2[nH]1 | inactive
CS(=O)(=O)c1ccc(CC(=O)N2CCCC(c3cccc(C(=O)O)c3)C2)cc1 (stereo not drawn) | inactive
CCOC(=O)c1ccc(N2C(=O)c3n[nH]c(C)c3C2c2cccc(Br)c2)cc1 (stereo not drawn) | active: 12.6 µM
